Source: PMC4336329 (PLoS ONE, 2015)
Among all 310,000 compounds or so, about 2,200 (0.71%) showed an effect of 50% or more. The effect is printed as a negative number. This is one part of the list.

Molecular target: human ether-à-go-go-related gene (hERG) potassium channel (human, UniProt Q12809)
Test: primary screen, population patch clamp on CHO cells stably expressing hERG

human ether-à-go-go-related gene (hERG) potassium channel, sequence (Q12809 whole entry, looked up): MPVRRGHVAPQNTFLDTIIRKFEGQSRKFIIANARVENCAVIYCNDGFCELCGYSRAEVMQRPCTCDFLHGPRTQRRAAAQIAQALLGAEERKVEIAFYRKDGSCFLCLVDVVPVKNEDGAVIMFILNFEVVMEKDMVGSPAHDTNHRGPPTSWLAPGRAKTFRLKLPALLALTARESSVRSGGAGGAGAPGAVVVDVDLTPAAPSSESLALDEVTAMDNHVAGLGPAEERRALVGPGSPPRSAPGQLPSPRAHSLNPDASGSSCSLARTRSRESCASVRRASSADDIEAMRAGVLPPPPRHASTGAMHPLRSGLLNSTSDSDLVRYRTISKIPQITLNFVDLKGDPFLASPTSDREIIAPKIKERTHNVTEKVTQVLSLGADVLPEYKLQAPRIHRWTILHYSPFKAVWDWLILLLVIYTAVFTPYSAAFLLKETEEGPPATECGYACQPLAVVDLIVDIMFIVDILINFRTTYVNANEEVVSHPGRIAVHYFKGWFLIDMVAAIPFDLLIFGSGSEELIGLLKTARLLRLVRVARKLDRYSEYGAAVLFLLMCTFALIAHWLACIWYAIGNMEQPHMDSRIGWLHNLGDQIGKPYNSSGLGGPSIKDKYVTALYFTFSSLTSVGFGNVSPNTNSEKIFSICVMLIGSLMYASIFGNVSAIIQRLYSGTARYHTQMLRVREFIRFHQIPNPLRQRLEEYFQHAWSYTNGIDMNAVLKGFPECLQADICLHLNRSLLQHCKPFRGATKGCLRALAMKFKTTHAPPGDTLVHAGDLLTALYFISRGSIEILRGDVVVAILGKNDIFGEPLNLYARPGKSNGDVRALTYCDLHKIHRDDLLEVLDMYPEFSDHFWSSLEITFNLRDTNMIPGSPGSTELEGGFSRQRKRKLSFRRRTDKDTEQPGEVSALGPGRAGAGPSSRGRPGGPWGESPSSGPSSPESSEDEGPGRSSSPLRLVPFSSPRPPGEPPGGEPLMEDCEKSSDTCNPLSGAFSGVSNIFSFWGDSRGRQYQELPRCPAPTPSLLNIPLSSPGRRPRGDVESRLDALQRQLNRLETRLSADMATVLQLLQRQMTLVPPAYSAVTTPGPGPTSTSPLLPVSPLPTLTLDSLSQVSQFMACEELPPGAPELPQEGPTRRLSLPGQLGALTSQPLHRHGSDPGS

Row | Structure (SMILES) | hERG current change (%, negative = inhibition) at 1uM [%]
1 | Cc1nn(C(C)C(=O)NCCCc2ccccc2)c(=O)c2cc3occc3n12 (stereo not shown) | 2.45
2 | O=C(OCCN1C(=O)c2ccccc2C1=O)c1cnccn1 | 13.6
3 | COc1cccc(NS(=O)(=O)NC(=O)c2c[nH]c3ccccc23)c1 | 8.47
4 | O=C(CCC(=O)N1CCOc2ccccc21)N1CCCCC1 | 0.834
5 | O=C1CCCCCN1Cc1nnc(SCc2nc3ccccc3s2)n1-c1ccccn1 | 9.51
6 | CCC(CC)C(=O)Nc1nnc(SCC(=O)NC2CCCCC2)s1 | 12.2
7 | O=C(c1ccc(Cl)c(S(=O)(=O)N2CCCCCC2)c1)N1CCN(c2ccccc2O)CC1 | 6.28
8 | O=C(NCCS(=O)(=O)N1CCN(c2ccccc2)CC1)C1CC1 | 11
9 | CCC(C(=O)N1CCOCC1)n1nc(C)c2c(C)n(-c3ccccc3)nc2c1=O (stereo not shown) | 6.73
10 | CC1CCN(C(=O)CSc2nc3c(c(=O)n2C)SCC3)CC1 | 12.2
11 | Cl.Nc1cc(Cl)ccc1Oc1ccc(Cl)cc1 | 9.81
12 | O=c1cc(CN2CCN(S(=O)(=O)c3ccccc3[N+](=O)[O-])CC2)nc2sccn12 | -10.7
13 | Cc1ccccc1NC(=O)Cn1c(=O)n(CC2CCCO2)c(=O)c2ccccc21 (stereo not shown) | 14
14 | Cc1c(CCOC(=O)C23CC4CC(CC(C)(C4)C2)C3)sc[n+]1Cc1ccccc1.[Cl-] | -0.114
15 | Cc1ccc(OC(=O)CCC(=O)NC(C)c2ccccc2)cc1 (stereo not shown) | 9.51
16 | CCNS(=O)(=O)c1ccc(CCC(=O)NC2CCCC2)cc1 | 17.8
17 | Cc1ccc2nc(NC(=O)c3ccc4ncsc4c3)sc2c1 | 8.42
18 | COC(CNC(=O)CNC(=S)N(CCCN1CCOCC1)Cc1cccs1)OC | 10.7
19 | CCCCCn1c(C(C)NC(=O)CCC)nc2ccccc21 (stereo not shown) | -1.01
20 | CCOc1ccc(C(C)NC(=S)NC2CCCCC2)cc1OCC (stereo not shown) | 13.3

Row | Structure (SMILES) | hERG current change (%, negative = inhibition) at 1uM [%]
21 | Cc1nnc2n(Cc3ccccc3)c(=O)c3c4c(sc3n12)COC(C)(C)C4 | 6.63
22 | Cc1cc(C)c2cc(C(=O)Nc3ccc(C)c(F)c3)[nH]c2c1 | 13.5
23 | O=Cc1cccn1-c1ccccc1 | 16.9
24 | O=C(NCc1cccs1)C1CCCN(S(=O)(=O)c2cccc3cccnc23)C1 (stereo not shown) | -6.11
25 | CN(C)/C=N/c1sc2c(c1C#N)CC(C)(C)NC2(C)C | 12.3
26 | C=CCn1c(NCc2ccco2)nc2ccccc21 | 10.9
27 | CCN(CC)CCCNCC(=O)Nc1cc(C)on1.O=C(O)C(=O)O | 5.61
28 | Cc1onc(-c2ccccc2)c1C(=O)OCC(=O)c1ccccc1 | 7.18
29 | COc1cc2cc(CCOC(=O)c3ccc(C(F)(F)F)cc3)oc(=O)c2cc1OC | 15.4
30 | O=C(NC(=S)Nc1ccc(Br)cc1)C1CCCCC1 | 9.25
31 | Cc1cc(NC(=O)c2cccc(C)c2[N+](=O)[O-])no1 | 11.6
32 | COc1ccccc1C(=O)Nc1nnc(S(=O)(=O)N2CCOCC2)s1 | 11.2
33 | O=C(Cn1cncn1)NCc1cccc(C(F)(F)F)c1 | 13.4
34 | Cl.NS(=O)(=O)c1ccc(CCNCc2ccccc2OCc2ccc(Cl)cc2)cc1 | -70.5
35 | Cc1cc(C(F)(F)F)nc(SCC(=O)Nc2cc(C)on2)n1 | 2.26
36 | Cc1ccc2cccc(OCCCOc3ccccc3CO)c2n1 | 8.64
37 | COCC(C)N1CCC(n2nccc2NC(=O)CCOc2ccccc2)CC1 (stereo not shown) | 1.52
38 | CC1=Nn2c(nnc2-c2ccc(F)cc2)SC1 | 2.16
39 | O=[N+]([O-])c1ccc(C(O)C(CO)NC(=S)Nc2ccccc2)cc1 (stereo not shown) | 6.18
40 | CN1C(=O)/C(=C/c2cccc(Cl)c2)Sc2ccc(C(=O)NCc3cccnc3)cc21 | 7.79

Row | Structure (SMILES) | hERG current change (%, negative = inhibition) at 1uM [%]
41 | Cc1nc2cc(C(=O)N3CCc4ccccc43)ccc2n1-c1ccc(F)c(F)c1 | -4.3
42 | COc1ccc(CSCCNC(=S)Nc2ccccc2)cc1Cl | 17
43 | O=C(c1cc(-c2ccc(Cl)s2)nc2ccccc12)N1CCCC1 | 8.74
44 | C/C(=N/OC(=O)c1ccc(Cl)cc1Cl)c1oc(C)nc1C | 9.71
45 | CCOCCCNCc1ccc(Cl)cc1 | -1.64
46 | O=C(Nc1ccc(N2CCOCC2)cc1Cl)C1CCN(C(=O)OCc2ccccc2)CC1 | 9.14
47 | O=C1NC(=S)N/C1=C/c1cccn1-c1ccc([N+](=O)[O-])cc1 | 13.2
48 | Cc1ccc(-c2ccc(OC(=O)c3ccc(=O)[nH]c3)c(C)c2)cc1 | 7.2
49 | CCc1cccc(C)c1N(C(=O)Cn1c(=O)[nH]c2ccccc21)C(C)COC (stereo not shown) | 10.3
50 | COc1ccc(/C=N/NC(=S)NCC2CCCO2)cc1 (stereo not shown) | 14.4
51 | Cc1ccc(C(=O)CC2(O)C(=O)N(CCc3ccccc3)c3ccc(Br)cc32)o1 (stereo not shown) | 2.06
52 | Cc1nn(-c2ccccc2)c(C)c1NC(=O)COc1ccc(Cl)cc1Cl | -18.7
53 | Cc1cccc(NC(=O)c2nc[nH]c2C(=O)N2CCC(C)CC2)c1 | 15
54 | O=C1SCC(c2ccccc2)=NN1Cc1ccccc1 | 18.1
55 | FC(F)(F)c1cccnc1N1CCN(c2ncnc3nc[nH]c23)CC1 | 15.2
56 | CCOc1ccc(CNC(=O)CCCn2nc(CC)n3c(cc4occc43)c2=O)cc1 | 8.06
57 | COc1ccccc1N=C1NC(=O)/C(=C/c2ccc(N(C)C)cc2)S1 | 11.3
58 | O=C(c1ccco1)N1CCN(C(=S)NC2CC3CCC2C3)CC1 (stereo not shown) | -8.53
